Results on 96 molecules are retold here after PubChem BioAssay AID485344 (National Center for Advancing Translational Sciences (NCATS), 2010).

The whole screen tested about 340,000 compounds, of which about 6,900 (2%) were called active. Rule as the data show it: active = inhibition above about 30%; inactive = below that, where a call was filed. Only a part is listed here, and it is no random draw. Where no call is shown, the source filed none.

The assay has as its target D(2) dopamine receptor (Homo sapiens) (UniProt P14416). The experiment in a line: HTS Assay for Allosteric Antagonists of the Human D2 Dopamine Receptor: Primary Screen for Antagonists. Also: 0% is about no effect. To be noted: HEK293 TREx D2 cells, calcium flux, dopamine EC80; at 10 µM; stronger effect = higher value. The essentials: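 Dopamine at EC80 is the agonist stimulus; test compounds precede it by 180 s. Calcium flux read kinetically in a force-coupled, inducible HEK293 T-REx D2 cell line.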
Sequence of UniProt P14416 (P14416 whole entry, looked up): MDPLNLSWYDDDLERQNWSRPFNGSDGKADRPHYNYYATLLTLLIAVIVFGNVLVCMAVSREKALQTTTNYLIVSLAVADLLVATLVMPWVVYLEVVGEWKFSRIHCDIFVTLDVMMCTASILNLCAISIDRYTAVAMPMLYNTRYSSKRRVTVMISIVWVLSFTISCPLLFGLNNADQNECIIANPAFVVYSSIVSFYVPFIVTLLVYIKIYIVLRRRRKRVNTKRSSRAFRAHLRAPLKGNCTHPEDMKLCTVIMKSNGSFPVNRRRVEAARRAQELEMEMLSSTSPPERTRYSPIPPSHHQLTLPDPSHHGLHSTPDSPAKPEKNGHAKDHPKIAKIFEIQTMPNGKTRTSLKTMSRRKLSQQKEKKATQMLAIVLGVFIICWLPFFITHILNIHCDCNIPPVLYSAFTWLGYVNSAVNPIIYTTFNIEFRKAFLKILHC
In general terms: A change in cytosolic calcium serves as a functional read-out for many receptors and channels.
By inhibition is commonly meant the relative decrease from the control value, in per cent. `CC1(C)C(=O)NC(=O)N1Cc1ccccc1`: the inhibition was active: 44.8%.
Under `CCOC(=O)C1CCN(c2nc3c(S(=O)(=O)c4ccc(Br)cc4)nnn3c3ccsc23)CC1` stands 1.1%; under `COc1ccc(CCNC(=O)Cn2cc(C(=O)c3ccc(Cl)cc3)c(=O)c3ccc(C)nc32)cc1OC`, 1.58%.
As for `O=C(CSc1nc(-c2cccs2)nc2cc(=O)[nH]n12)Nc1ccccc1`, the inhibition is -0.353%.
The value for `COc1ccccc1CNC(=O)CN1C(=O)CCc2cc(S(=O)(=O)N3CCCCC3)ccc21` was 0.409%.
The value for `COc1ccc(C(=O)NCCn2cc(SCc3cccc(F)c3)c3ccccc32)cc1OC` was -6.4%; that for `O=C(CSC1=NCCN1)Nc1cccc(C(F)(F)F)c1` was active: 75.4%; that for `CCc1ccc(NC(=O)CC(c2cc(OC)c(OC)c(OC)c2)N2Cc3ccccc3C2=O)cc1` (stereo unspecified) was 3.54%.
Under `COc1ccccc1-c1noc(-c2ccc(N3CCOCC3)c([N+](=O)[O-])c2)n1` stands -4.23%; under `COC(=O)c1ccc(-n2c(C)cc(/C=N/n3cnnc3)c2C)cc1`, active: 30.7%.
Regarding `CC(C)Cn1c(=O)c2ccccc2n2c(CCC(=O)N3CCN(c4cccc(Cl)c4)CC3)nnc12`, the inhibition was -12.7%.
Under `CC(=O)c1ccc(N2CCN(c3ncnc4c3c(-c3ccccc3)cn4-c3ccc(C)c(Cl)c3)CC2)cc1` stands 1.79%; under `COCCCN(Cc1ccco1)C(=O)c1cc2c(s1)-c1ccccc1OC2`, -2.63%.
As for `CC1CCN(C(=O)c2ccc3c(c2)N(Cc2ccccc2F)C(=O)c2ccccc2S3(=O)=O)CC1`, the inhibition is -0.142%.
The value for `Cc1c(Cl)cccc1-n1ncc(C(=O)N2CCN(C)CC2)c1C1CCN(C(=O)OC(C)(C)C)CC1` was 7.22%.
For `Cc1nc(-c2cccc(S(=O)(=O)N3CCOCC3)c2)cs1`, the inhibition is active: 34.7%.
Regarding `COc1ccc(S(=O)(=O)n2nc(C)c(S(=O)(=O)N3CCCCC3)c2C)cc1`, the inhibition was -15%.
The value for `C/C(O)=C(/C=Nc1ccccc1)C(=O)Nc1ccccc1` was active: 33%; that for `COc1ccccc1N1CCN(C(=O)c2cc3c(=O)n(C)c4ccccc4c3s2)CC1` was -2.04%.
The value for `COc1ccc(-c2nc(SCC(=O)NC3CCCC3)c(-c3ccc(OC)cc3)[nH]2)cc1` was 14.4%.
The value for `Cn1cccc1-c1cc(C(=O)N/N=C/c2ccc(Cl)cc2)[nH]n1` was active: 35%; that for `Cc1ccccc1-c1noc(-c2ccc(N3CCN(c4ccccc4)CC3)c([N+](=O)[O-])c2)n1` was -2.87%; that for `CC(C)c1ccccc1NC(=O)CNCCOc1ccccc1F` was active: 46.1%.
As to `COCCCNc1nc(N)c([N+](=O)[O-])c(NC2CCCCC2)n1`, the inhibition was active: 30.4%.
The value for `CC(=O)OCc1cc(=O)n2nc(C3CCCCC3)sc2n1` was -17.4%.
The value for `Cc1ccc(C(=O)NCCc2c[nH]c3ccccc23)c(C)c1` was active: 73.8%; that for `O=C(COc1ccccc1)Nc1sc2c(c1C(=O)Nc1ccccc1Cl)CCCCC2` was 1.38%; that for `CCN(Cc1nc(-c2cccc(C)c2)no1)S(=O)(=O)c1ccc(C)cc1` was 24.9%.
The value for `CCNC(=O)COC(=O)CCC(=O)c1cccs1` was active: 51.3%; that for `Cc1cccc(C)c1NC(=O)CN1C(=O)CCSc2ccc(S(=O)(=O)N3CCCC3)cc21` was -1.92%; that for `COc1ccc(N(CC(=O)Nc2ccc(C)c(C)c2)S(=O)(=O)c2ccc(C)cc2)cc1OC` was -23.5%.
For the molecule `Cc1ccc(C)c(N2C(=O)N(Cc3c(F)cccc3Cl)c3ccccc3S2(=O)=O)c1`, the inhibition was -1.01%.
The value for `COC(=O)c1cc(NC(=O)Nc2ccc3snnc3c2)cc(C(=O)OC)c1` was 13.4%; that for `CCCOc1ccc(/C=C/C(=O)Nc2sc(C)c(C)c2C(=O)OCC)cc1OC` was -5.32%.
The value for `CCCOc1ccc(NC(=O)CC2C(=O)N(c3ccc(C)cc3)C(=O)N2C(C)C)cc1` (stereo unspecified) was 12.1%; that for `CCCN1CCN(CCCNC(=O)c2cc3c(Cl)nc4ccccc4c3s2)CC1` was -24.2%; that for `Cc1nnc(SCc2cc(=O)c3ccccc3[nH]2)s1` was -8.3%.
For `Cc1nc(S(=O)(=O)N2CCN(c3ccc(Cl)cc3)CC2)cn1C`, the inhibition was -6.43%.
Consider `CCOc1ccc(S(=O)(=O)NCCc2csc(-c3ccc(Cl)cc3)n2)cc1`, for which the inhibition is -5.62%.
The value for `CCOc1ccc(CCNC(=O)c2ccc(-c3nc(CSc4ccc(C)cc4)c(C)o3)cc2)cc1` was -16.6%.
Under `COc1ccc(NC2=Nc3ccccc3CC2)cc1` stands active: 46.2%.
Under `Cc1cc(C)cc(Nc2ncnc3c2nc2n3CCCC2)c1` stands 1.97%; under `COc1ccc(N2CC(NC(=O)COc3ccccc3F)CC2=O)cc1OC` (stereo unspecified), 1.3%.
In the case of `CC(C)CCNC(=O)CN1C(=O)CCn2nc(-c3cn(C)c4ccccc34)cc21`, the inhibition is -1.68%.
As for `COc1ccc(C)c2sc(NC(=O)c3ccc(S(=O)(=O)N4CCCCC4)cc3)nc12`, the inhibition was 4.76%.
Under `CCOc1ccc(NC(=O)CSc2oc(-c3ccco3)nc2S(=O)(=O)c2ccc(C)cc2)cc1` stands 11.3%; under `CCn1c2ccccc2c2nnc(N3CCN(c4ccc(F)cc4)CC3)nc21`, 13.3%.
Turning to `COc1ccc(NC(=O)c2ccc(CN3C(=O)CCn4nc(C)cc43)cc2)c(OC)c1`, the inhibition came to 4.94%.
Under `CCOC(=O)c1c(NC(=O)COc2cccc(C(F)(F)F)c2)sc2c1CCC(C)C2` (stereo unspecified) stands -4.53%.
Under `CCOC(=O)c1cc2c(=O)n3ccccc3nc2n(CC2CCCO2)c1=NC(=O)c1ccc(C(C)(C)C)cc1` (stereo unspecified) stands -8.34%.
The value for `Cc1nc2sc(C(=O)N(C)Cc3ccccc3)c(NC(=O)c3ccccc3)c2c(C)c1Cl` was -0.792%; that for `CCOc1ccc(CNC(=O)c2ccc(Sc3ccc(Cl)cc3)c(NC(C)=O)c2)cc1` was -6.97%.
On to `COc1ccc(NC(=O)CSc2cn(CC(=O)N3CCCCC3)c3ccccc23)c(OC)c1`, for which the inhibition amounted to 11.4%.
Under `COc1ccc(C(CNC(=O)c2ccc(C)c(S(=O)(=O)Nc3ccccc3OC)c2)N2CCCC2)cc1` (stereo unspecified) stands active: 48.9%; under `CCCC(=O)Nc1ccc2c(c1)nc(CN1CCN(C(=O)OCC)CC1)n2C(C)C`, -9.47%.
Under `CCC1CN(C(=O)NCc2cccc(OC)c2)c2cc(Cl)ccc2O1` (stereo unspecified) stands 6.03%; under `Cc1ccccc1C(=O)c1cccn1CC(=O)NCc1ccc(Cl)cc1`, -6.57%.
The value for `Cc1ccc2c(CN3CCN(Cc4ccccc4Cl)CC3)cc(=O)oc2c1` was -11.4%.
As for `COc1ccc(CCNC(=O)CCCn2c(=O)c3cccn3c3cccnc32)cc1OC`, the inhibition was 5.24%.
The value for `COc1ccc(C2CC(=O)Nc3c2c(=O)nc2c(C)cccn32)cc1OC` (stereo unspecified) was -9.62%.
Under `CCCCC1CCC(C(=O)N2CC(=O)Nc3ccc(F)cc3C2c2ccc(F)cc2)CC1` (stereo unspecified) stands 1.06%.
Under `COc1ccc(-n2c(SCC(=O)NCc3cccs3)nnc2-c2ccoc2C)cc1` stands active: 42.5%; under `CCN1CCN(CCCNC(=O)c2ccc3nc(Cc4ccc(OC)cc4)oc3c2)CC1`, -12.9%.
As to `O=C(Nc1ccc(C(=O)N2CCN(c3ccc(F)cc3)CC2)cc1)c1nsc2ccccc12`, the inhibition was -0.0671%.
The value for `CCOc1cc(CNS(=O)(=O)c2ccc3c(c2)CC(=O)N3C)cc(OCC)c1OCC` was 7.31%; that for `Cc1cc(C)n(C(C)CC(=O)NCc2ccccc2C)n1` (stereo unspecified) was 3.92%.
Under `CCCCN(CCCC)c1ncnc2c1cnn2-c1cccc(C)c1` stands 23.9%; under `CC(=O)Nc1ccc(S(=O)(=O)N2CCC(c3ccncc3)CC2)cc1`, -9.44%.
Under `COc1ccc(Br)cc1C(=O)Nc1ccc2oc(-c3cccnc3)nc2c1` stands -24.3%; under `CCOC(=O)c1c(S(=O)(=O)N2CCCC(C(=O)Nc3ccc(OCC)cc3)C2)c(C)n(C)c1C` (stereo unspecified), -3.44%; under `Cc1ccc(S(=O)(=O)c2cn(Cc3cccc(F)c3)c3cc(N4CCCC4)c(F)cc3c2=O)cc1`, -9.66%.
For `CCOc1ccc(NC(=O)c2cc3sc(Cl)cc3n2CC)cc1`, the inhibition was -5.36%.
On to `CCCOc1ccccc1-c1nc(SCC(=O)c2ccccc2)n[nH]1`, for which the inhibition is -14.4%.
For the molecule `Cc1ccc(-c2cc(NC(=O)c3ccccc3Cl)on2)cc1`, the inhibition is -0.681%.
The value for `Cc1cccc(S(=O)(=O)NCCc2cn3ccccc3n2)c1` was active: 32%.
With `O=C(CCN1CCN(c2ccc(Cl)cc2)CC1)Nc1ccccc1F`, the inhibition is active: 35.9%.
The value for `COCCn1c(C)cc(O)c(C(c2ccccc2)N2CCC(C)CC2)c1=O` (stereo unspecified) was -3.13%; that for `CN(CC(=O)N1CC=C(c2ccccc2)CC1)S(=O)(=O)c1ccc2c(c1)c(=O)n(C)c(=O)n2C` was active: 30.8%; that for `COc1ccc(N2C(=O)CSC23C(=O)N(C)c2ccccc23)cc1Cl` (stereo unspecified) was -2.94%.
Under `CCc1ccccc1Nc1cc(C(=O)NCc2ccc(C)cc2)c2ccccc2n1` stands -1.23%.
For `O=C(c1c2c(nc3ccccc13)C(=O)N(C1CCCCC1)C2)N1CCN(c2ccc(F)cc2)CC1`, the inhibition amounted to 1.95%.
Under `COC(=O)c1c(NC(=O)c2cc(=O)c3c(C)cc(C)cc3o2)sc2c1CCCC2` stands 3.95%; under `O=C(CN(CC1CCCO1)C(=O)CNS(=O)(=O)c1ccc(F)cc1)NCc1ccc(F)cc1` (stereo unspecified), active: 36.6%.
Turning to `Cc1cccc(NC(=O)CN(c2ccc(C(C)C)cc2)S(=O)(=O)c2c(C)nn(C)c2C)c1C`, the inhibition was -6.81%.
With `Cc1ccc(-n2ncc3c(N4CCN(c5ccccc5)CC4)ncnc32)cc1C`, the inhibition was -1.06%.
Under `COc1ccc(N(C)C(=O)Cn2cnc3sc(C)c(S(=O)(=O)N4CCN(c5ncccn5)CC4)c3c2=O)cc1` stands 28.3%.
As for `Cc1ccc(-c2nc3cccc(C)n3c2Nc2ccc3c(c2)OCCO3)cc1`, the inhibition was -5.22%.
With `CCOCCCn1c(=N)c(C(=O)NC2CCCCC2)cc2c(=O)n3ccccc3nc21`, the inhibition stood at 0.804%.
As for `O=C(NCCS(=O)(=O)N1CCN(c2cccc(Cl)c2)CC1)C(c1ccccc1)c1ccccc1`, the inhibition is -19.6%.
`Cc1ccc(Cl)cc1NC(=O)CN1C=NS(=O)(=O)c2ccccc21`: the inhibition is -5.55%.
The value for `CCc1ccc(S(=O)(=O)Nc2ccc3c(c2)sc(=O)n3C)cc1` was -5.6%; that for `CCc1nn(CCCC(=O)NCc2ccccc2OC)c(=O)c2cc3occc3n12` was 4.6%; that for `Cc1cccc(Cn2c(=O)n(-c3cc(C)cc(C)c3)c(=O)c3oc4ccccc4c32)c1` was 3.35%.
The value for `Cc1cc(C)c2c(n1)nn1c(C)c(CCC(=O)Nc3cccc(C)c3C)c(C)nc21` was 0.65%.
Under `Cc1ccc(Cl)cc1N1CCN(C(=O)C2CCN(S(=O)(=O)c3cn(C)cn3)CC2)CC1` stands 11.6%; under `CC1CCN(CCCCOc2ccccc2-c2ccccc2)CC1`, active: 83.8%.
